Some test systems named below: CCRF-CEM leukemia; DMS 273 small cell lung; HCT-116 colon; IGROV1 ovarian; KM12 colon; LXFL 529 NSCLC; MCF7 breast; MDA-MB-231 breast; NCI-H522 lung; OVCAR-4 ovarian; PC-3 prostate; SF-268 CNS; SK-OV-3 ovarian; SNB-78 CNS; U251 CNS; HCT-15 colon; HT29 colon; OVCAR-3 ovarian; SF-539 CNS.
Assay in all cases: NCI-60 cell line screen, 48 h

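Where inhibition never reached the appropriate level, the endpoint shown equals the highest concentration tested. Otherwise, values were interpolated linearly from a five-concentration, 48-hour dose response in 96-well plates. At the GI50, growth is halved.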 For part of its entries the source gives two or more results. Only these are listed. The source may hold further records. The tests behind the records often covered other concentration ranges, not given here; a value can be the end of its range.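 TGI marks complete inhibition of growth.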

Take `CC[C@H]1CN2CCc3cc(OC)c(OC)cc3[C@@H]2C[C@@H]1C[C@H]1NCCc2cc(O)c(OC)cc21`: the TGI is 73 nM and 5.09 µM in the assay on CCRF-CEM leukemia; 52.4 nM, 10.4 nM [1 test] and 246 nM [mean of 2 tests] in the assay with DMS 273 small cell lung; 55.2 nM and 1.94 µM with HCT-116 colon; 85.3 nM, 72.4 nM [mean of 2 tests] and 820 nM [mean of 3 tests] in the assay on IGROV1 ovarian; 43.3 nM [1 test] and 71.2 nM [mean of 2 tests] and 688 nM [mean of 4 tests] in the assay on KM12 colon; 46.3 nM and 874 nM in the assay on LXFL 529 NSCLC. For the same compound, the TGI in the assay with MCF7 breast is 80.7 nM, > 100 µM [1 test] and 66.4 nM [mean of 4 tests]; with MDA-MB-231 breast, 31.1 nM and > 100 µM; in the assay on NCI-H522 lung it was 11.2 nM [mean of 2 tests] and 160 nM [mean of 5 tests]; in the assay on OVCAR-4 ovarian, 22.5 nM [mean of 2 tests] and 800 nM [mean of 3 tests]; with PC-3 prostate, 83.1 nM and > 100 µM; with SF-268 CNS, 83.4 nM, 168 nM [mean of 2 tests] and 957 nM [mean of 3 tests]. Also, the TGI is 68.4 nM [mean of 2 tests] and 976 nM [mean of 3 tests] in the assay on SK-OV-3 ovarian; 74.8 nM, 3.78 µM [1 test] and 1.07 µM [mean of 4 tests] with SNB-78 CNS; 76.7 nM, < 18 nM [mean of 2 tests] and 241 nM [mean of 4 tests] with U251 CNS.
With `CC1/C=C/C=C/C=C/C=C/C=C/C=C/C=C/C(O[C@@H]2O[C@H](C)[C@H](O)[C@@H](O)[C@@H]2N)CC(O)C(C(=O)O)C(O)CC(=O)CC(O)CC(O)CC(O)CC(=O)CCCC(=O)CC(=O)OC1C(C)CC(C)C(O)CC(=O)c1ccc(N)cc1` (stereo partly specified), in the assay with HCT-15 colon, the GI50 is 65.7 nM and 1.12 µM. In addition, the TGI in the assay with HCT-15 colon is 142 nM and 2.36 µM; with HT29 colon, 105 nM and 1.16 µM; in the assay with KM12 colon, 154 nM and 1.88 µM; in the assay with OVCAR-3 ovarian, 123 nM and 1.28 µM; in the assay with SF-539 CNS it was 125 nM and 1.74 µM.

The values above are taken from PubChem BioAssay (NCI).
